Experimental findings from the supplement of paper PMC11417369 are described below.

The list shows a part of the results.

The subject of the experiment is PfHDP1 homeodomain (GST-tagged). The experiment can be described thus: gcPBM binding intensity (ln(normalized median fluorescence intensity)); higher = stronger DNA binding. The essentials:
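Probes on an Agilent 4 × 180k array were primer-extended, double-stranded and 36 bp long, taken from intergenic genomic regions, with negative controls added. GST-tagged P. falciparum DNA-binding domains from E. coli, about 25 μg on average, were applied to the array for 1 h in 1× PBS containing 1% milk, 0.2 mg/ml BSA, 0.5% salmon testes DNA and 0.03% Triton X-100. Binding intensity, obtained after Alexa488 anti-GST antibody detection and a 488 nm scan, is the highest Masliner-normalised natural-log median intensity across replicate spots of either probe orientation.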
As for “ATAATCTGACAAATGTGTACACATATATATATATAT [XGTACX_site2379]”, the “gcPBM binding intensity (ln)” value amounted to 9.28.

For the sequence “AAATAATATATTCCTTGTACTTATTTCAATGAATTC [XGTACX_site7719]”, the “gcPBM binding intensity (ln)” value is 6.33.

For the sequence “ACCAAAAGGGGATGTAGTACAATATGATTAGAAGAA [XGTACX_site3773]”, the “gcPBM binding intensity (ln)” value came out at 7.11.

As for “TATGTATAGATATATACACACTTCTGTGATACGAAA [CACACA_site7003]”, the “gcPBM binding intensity (ln)” value was 6.51.

Regarding “TAAAGAGTCATGTGGTGTACCTGCTTCACCACATAT [XGTACX_site1288]”, the “gcPBM binding intensity (ln)” value is 5.79.

With “TTATTTTTAATATCGGTGCAACAAAAAGGAAAAGAT [GTGCAC_site9482]”, the “gcPBM binding intensity (ln)” value amounted to 9.29.

“TATATATTCATAAAGTGTACATGTTTATATATATAT [XGTACX_site7585]”: the “gcPBM binding intensity (ln)” value turned out to be 8.53.

Consider “ATATGTACATATCTCATGCACTTAACAAAAAAAAAG [GTGCAC_site9898]”, for which the “gcPBM binding intensity (ln)” value was 8.01.

As for “ACAATACAAATATATACACACATACATACATACATA [CACACA_site5699]”, the “gcPBM binding intensity (ln)” value was determined as 7.03.

Consider “TTAATATTTACAAAATGTACAGATTATTTATTGTTG [XGTACX_site1270]”, for which the “gcPBM binding intensity (ln)” value amounted to 6.03.

For the sequence “TTTTTTAATATTTATACATGCATGCCGATTACTATA [TGCATGCA_site26]”, the “gcPBM binding intensity (ln)” value was found to be 6.67.

As for “AATAATTATAATAAGGGTACGTATCTCACAGGAAAA [XGTACX_site4187]”, the “gcPBM binding intensity (ln)” value came to 6.72.

On to “AAATATGTCAAATATACACACATAATAACTAGAATA [CACACA_site7151]”, for which the “gcPBM binding intensity (ln)” value came out at 6.6.

Turning to “TATTTATTAAAACACACACACACACCGACAAAATAA [CACACA_site4293]”, the “gcPBM binding intensity (ln)” value was determined as 7.2.

“TTAATTTGTAAATAATGTACATATAAATGGAAAGTA [XGTACX_site2743]”: the “gcPBM binding intensity (ln)” value turned out to be 7.35.

In the case of “TAATAAAACATATATACACACATTATGTATACATAT [CACACA_site1703]”, the “gcPBM binding intensity (ln)” value is 6.63.

For the sequence “AAATGTTGAAATGATACACACATATAAATATAAATA [CACACA_site7229]”, the “gcPBM binding intensity (ln)” value is 6.47.

As for “CCCTGAGCACTTTCGTGTACTAATAGTAACAATAAT [XGTACX_site1418]”, the “gcPBM binding intensity (ln)” value was 7.38.

In the case of “AATAATAAACACAATCAAATAAAATATGAAATATAA [GTGCAC_negctrl_site307]”, the “gcPBM binding intensity (ln)” value came out at 6.16.

Turning to “AAACAAATGTATATGTGTACTTATTTTTTTGTATGT [XGTACX_site7134]”, the “gcPBM binding intensity (ln)” value came out at 6.17.

With “TATATATATTTAAAAAGTACAAAAAAAAAAAATGAA [XGTACX_site374]”, the “gcPBM binding intensity (ln)” value is 6.52.

Take “ATCAGTCGAGATGACAGTACACAGTAGCCAGGAAAT [XGTACX_site4932]”: the “gcPBM binding intensity (ln)” value came to 6.69.

As for “TATGTAGATAAATAAGCACACACCAAACATATAAAA [CACACA_site1182]”, the “gcPBM binding intensity (ln)” value came to 7.25.

For “AAAACATTATTCCATACACACCATACTTTTTAATAA [CACACA_site7326]”, the “gcPBM binding intensity (ln)” value is 6.58.

As to “TAAAATATTATCTACGCACACATTAAAATAAAAAAA [CACACA_site3709]”, the “gcPBM binding intensity (ln)” value worked out at 6.67.

For “CATTTGCACACGCACACACACATAAAAAGAAAAATA [CACACA_site6297]”, the “gcPBM binding intensity (ln)” value stood at 10.8.

As for “ATAAAGAAAAGGAACACACAAATATGTAAATATGTA [CACACA_site6356]”, the “gcPBM binding intensity (ln)” value came out at 6.43.

Consider “TTACACATAAATACCATATAAATATAATGCATATCT [CACACA_negctrl_site1731]”, for which the “gcPBM binding intensity (ln)” value is 6.36.

With “AAGGAGCCTATGAACACACACATGTACCTATATTAA [CACACA_site7838]”, the “gcPBM binding intensity (ln)” value came out at 6.55.

As to “ATACGTATTTATTTCACACACGTTAAAAAAATAAAA [CACACA_site6027]”, the “gcPBM binding intensity (ln)” value came to 6.21.

As to “AGAATGAAATAATATACACACAAAGGAAAAATGTAA [CACACA_site3911]”, the “gcPBM binding intensity (ln)” value worked out at 7.09.

Consider “TCTTGACTAAATATATGTACATATATTTTAATAATA [XGTACX_site701]”, for which the “gcPBM binding intensity (ln)” value was found to be 6.5.

On to “TAAGTGCTTTTCAACTGTACCTTCCATTTATTTATT [XGTACX_site8589]”, for which the “gcPBM binding intensity (ln)” value is 6.39.

For the sequence “ACTACATAATATTTACGTACCTAAAAAATTCTTATA [XGTACX_site509]”, the “gcPBM binding intensity (ln)” value stood at 6.5.

As for “AAAAAAAAAAAAAATACACACGTGAATGTATTGTTT [CACACA_site4856]”, the “gcPBM binding intensity (ln)” value amounted to 6.51.

Regarding “TTCTTATTTTATATTTCACACATTTTTACTATACTT [CACACA_site5817]”, the “gcPBM binding intensity (ln)” value worked out at 7.22.

Regarding “GTATTCAAAAGTGAAACATGCAATAATATATATATA [TGCATGCA_site617]”, the “gcPBM binding intensity (ln)” value amounted to 8.5.

In the case of “AATATAATAATAAAAACACACACGTTGATTGTATTA [CACACA_site2381]”, the “gcPBM binding intensity (ln)” value came to 6.21.

With “TAAAAATTCAATTGCACACGCACATATTTTAATAAG [CACACA_site2014]”, the “gcPBM binding intensity (ln)” value turned out to be 9.34.

In the case of “AAAAAATAGACATATACACACATATGTATTTATAAT [CACACA_site5225]”, the “gcPBM binding intensity (ln)” value stood at 6.36.

For “CGTATGCAAGGAACCACACACACACCCATAAATGTA [CACACA_site749]”, the “gcPBM binding intensity (ln)” value came out at 6.71.

On to “TTTTTTTTTATAAGGTGTACGTAAAATGTGTAGGTC [XGTACX_site3585]”, for which the “gcPBM binding intensity (ln)” value was 7.48.

For “TTAAAAATAAAAAATACACACTCTAGTCCATGTAAC [CACACA_site3640]”, the “gcPBM binding intensity (ln)” value was determined as 6.26.

Take “CCTATAATAAATAATACACACATATTGTAAATATAT [CACACA_site7496]”: the “gcPBM binding intensity (ln)” value is 6.54.

Turning to “ATGTCATTATATACATGTACGCATATCTGTTTATCC [XGTACX_site3947]”, the “gcPBM binding intensity (ln)” value was found to be 7.02.

For ATTTCATATAGTGTAGTGCAATTTTAAGCATCAAGG, the “gcPBM binding intensity (ln)” value is 9.39.

Take “AGTACAGACATAGACACACACACACCCATAAAAAAA [CACACA_site1515]”: the “gcPBM binding intensity (ln)” value amounted to 6.68.

Consider “TGTACATAAATCTAATTATTATATGTGTATATATAT [CACACA_negctrl_site1582]”, for which the “gcPBM binding intensity (ln)” value turned out to be 7.22.

“TTAAGATAGCAAATATGTACACATTTGTAAAATAAA [XGTACX_site4837]”: the “gcPBM binding intensity (ln)” value turned out to be 6.71.

Consider “TCATGTTTTACAAAAACACACAAATGAATATAAACC [CACACA_site1161]”, for which the “gcPBM binding intensity (ln)” value is 6.89.

In the case of “TCACATATTATCTTTACACACTATATATAAGTTTTA [CACACA_site2790]”, the “gcPBM binding intensity (ln)” value was 6.8.

“AAGTGTATATAAAAATGTACATATTTCGATTTAAAT [XGTACX_site4161]”: the “gcPBM binding intensity (ln)” value was found to be 6.69.

“TAATAAATATATAATTGTACTTAAAAGAATATAAAA [XGTACX_site2928]”: the “gcPBM binding intensity (ln)” value came out at 6.2.

Regarding “AATATATACCAACATAAATATATATATATATATATA [TGCATGCA_negctrl_site334]”, the “gcPBM binding intensity (ln)” value is 9.13.

With “TTACACATATTATATATATATAAAAAAAAAAAATAT [CACACA_negctrl_site1684]”, the “gcPBM binding intensity (ln)” value was 6.82.

“ACCAATAATATACATACACACATAAAGGTTTATATA [CACACA_site315]”: the “gcPBM binding intensity (ln)” value was 6.66.

Take “AAAAATCGATACAAGCGTACAAAATAAAATAAAAAT [XGTACX_site5546]”: the “gcPBM binding intensity (ln)” value came to 6.94.
